{"source": "PubChem BioAssay AID662", "about": "(National Center for Advancing Translational Sciences (NCATS), 2007)", "note": "The whole screen tested about 71,000 compounds, of which about 1,800 (2.5%) were called active. The inconclusive results got no clear call from the source; some entries with a clear call stand among them for comparison. The call rests on the fitted dose curve; in most records, active means well fitted activation curve with a large enough effect in the signal ratio, with a control signal flat (not every such curve was filed as active); inconclusive means small, poorly fitted or top-dose-only effect, or effect the other way, or a change in a side signal; inactive means flat fitted curve, though single readings scatter; the % refers to the signal ratio. Where the call is inconclusive, the potency comes from a doubtful curve fit. Potency means the concentration at half of the fitted maximal effect; tags describe the fitted curve by direction and shape."}
{"experiment": "Cell signaling CRE-BLA (Fsk stim); on activity change, negative = inhibition: % of control where 0% means no effect", "settings": "CHO CRE-bla reporter (cAMP response element driving beta-lactamase), forskolin EC10, beta-lactamase ratio; activity change, negative = inhibition: at 38.2 µM (top of the series) unless noted", "how_it_was_run": "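AC50 values, positive or negative, reflect shifts in EC10 NKH 477-induced CRE-bla reporter activity in CHO cells. Incubation lasted 3 h at 37 °C before CCF4 substrate (2 h, room temperature) and ratiometric 460/530 nm reading.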"}
{"smiles": "O=C(CCn1c(=O)oc2ccccc21)N1CCOCC1", "activity change, negative = inhibition": "inconclusive: -12.8%"}
{"smiles": "COc1ccccc1Nc1nc2ccccc2[nH]1", "activity change, negative = inhibition": "inconclusive: 5.36%"}
{"smiles": "COc1ccc(CNC(=O)c2cc3c(C)nc4ccccc4c3o2)c(OC)c1", "Potency": "inconclusive: 2.51 µM [rising, full curve]"}
{"smiles": "Cc1nn(C)c(C)c1S(=O)(=O)N(CC(=O)Nc1ccccn1)c1ccc(C(C)C)cc1", "activity change, negative = inhibition": "inactive"}
{"smiles": "CCn1c(=NC(=O)CSC(C)=O)sc2cc(OC)ccc21", "activity change, negative = inhibition": "inconclusive: -0.241%"}
{"smiles": "CCOC(=O)c1ccccc1NC(=O)c1ccccc1SC", "Potency": "inconclusive: 10 µM [rising, partial curve]"}
{"smiles": "COc1ccccc1CN1CC2(CCN(C(=O)c3cccc(F)c3)CC2)C1", "activity change, negative = inhibition": "inactive"}
{"smiles": "FC(F)(F)c1ccccc1-c1nc(N2CCOCC2)c2ccccc2n1", "activity change, negative = inhibition": "inconclusive: 4.05%"}
{"smiles": "Cc1ccc(C(=O)Nc2ccccc2C(N)=O)o1", "activity change, negative = inhibition": "inactive"}
{"smiles": "O=c1cc(CN2CCN(c3ccccc3)CC2)c2cc(O)c(-c3ccccc3)cc2o1", "activity change, negative = inhibition": "inconclusive: -28.4%"}
{"smiles": "COC(=O)c1sc(N)c(C(=O)OC)c1CSc1nnnn1C", "activity change, negative = inhibition": "inconclusive: 6.36%"}
{"smiles": "Cc1cnc(CNc2cc(-c3cccc(C#N)c3)ncn2)cn1", "Potency": "inconclusive: 10 µM [rising, partial curve]"}
{"smiles": "CCOCCCN1C(=O)CN(C2CCCCC2)C(=O)C1c1ccc(OCC)c(OC)c1", "note": "(stereo not given)", "activity change, negative = inhibition": "inconclusive: 0.564%"}
{"smiles": "CCc1ccccc1NC(=O)CSc1nc2n[nH]c(C)c2c(=N)n1-c1ccc(OC)cc1", "Potency": "active: 2.51 µM"}
{"smiles": "CN(C(=O)c1ccccc1)C1(C)CCS(=O)(=O)C1", "note": "(stereo not given)", "Potency": "inconclusive: 3.16 µM [rising, single point]"}
{"smiles": "COC(=O)c1ccc2c(=O)n(CCC3=CCCCC3)c(SCC(=O)N3CCCC3)nc2c1", "activity change, negative = inhibition": "inconclusive: 16.1%"}
{"smiles": "O=C(OCC#CCSc1nnc(-c2cccc3ccccc23)o1)c1cccs1", "activity change, negative = inhibition": "inactive"}
{"smiles": "CCOc1cc(-c2c(C#N)c(N)nc3c2CCCC3)ccc1O", "Potency": "inconclusive: 5.01 µM [rising, partial curve]"}
{"smiles": "CCOc1nc(C)ccc1-c1noc(-c2ccccc2OC)n1", "Potency": "inconclusive: 10 µM [rising, single point]"}
{"smiles": "CCNc1ncc2nc(-c3cn(C)c4ccccc34)c(=O)n(CCC#N)c2n1", "Potency": "active: 3.98 µM"}
{"smiles": "COc1ccc(NC(=O)CCNC(=O)Cn2ccc3ccccc3c2=O)c(OC)c1", "activity change, negative = inhibition": "inconclusive: -4.38%"}
{"smiles": "COc1ccc(-n2c(C)nc3c(cnn3-c3ccc(Cl)cc3)c2=O)cc1", "activity change, negative = inhibition": "inconclusive: 19.2%"}
{"smiles": "CCOC(=O)c1nn(-c2ccc(OC)cc2)c(=O)c2c(NC(=O)c3ccco3)scc12", "Potency": "inconclusive: 15.8 µM [rising, single point]"}
{"smiles": "COCCNC(=O)C(C#N)c1nc2ccccc2nc1N1CCCCCC1", "note": "(stereo not given)", "Potency": "active: 10 µM"}
{"smiles": "Cc1cc(C)nc(NS(=O)(=O)c2ccc(NC(=O)c3ccc4c(c3)OCO4)cc2)n1", "Potency": "inconclusive: 1 µM [falling, single point]"}
{"smiles": "COc1ccc2[nH]cc(CCNc3nc(-c4ccccc4CN(C)C)nc4ccccc34)c2c1", "activity change, negative = inhibition": "inactive"}
{"smiles": "COc1cc(NS(C)(=O)=O)c(OC)cc1NC(=O)c1cccc(F)c1", "activity change, negative = inhibition": "inconclusive: 20.1%"}
{"smiles": "CN(C)c1ncc2nc(-c3cc(F)cc(F)c3)c(=O)n(Cc3cccs3)c2n1", "Potency": "inconclusive: 0.794 µM [rising, full curve]"}
{"smiles": "NC(=O)c1cnn2c(C(F)(F)F)cc(-c3ccc(F)cc3)nc12", "Potency": "active: 10 µM"}
{"smiles": "COc1cc(C2CC(=O)c3cnc(NC(=O)COc4ccccc4)nc3C2)cc(OC)c1OC", "note": "(stereo not given)", "activity change, negative = inhibition": "inconclusive: 23.7%"}
{"smiles": "COc1ccc(C2C(C#N)=C(N)OC3=C2C(=O)CC(C)(C)C3)c(OC)c1OC", "note": "(stereo not given)", "activity change, negative = inhibition": "inconclusive: 17.8% [at 7.6 µM]"}
{"smiles": "CCSc1nc2cc(OC)c(OC)cc2c(=O)n1CC", "Potency": "active: 10 µM"}
{"smiles": "Cc1nn(-c2ccc3nnc(Br)n3n2)c(C)c1Br", "activity change, negative = inhibition": "inconclusive: 2.29%"}
{"smiles": "CCCCc1ccc(NC(=O)C2CCCO2)cc1", "note": "(stereo not given)", "Potency": "inconclusive: 0.251 µM [rising, full curve, poor fit]"}
{"smiles": "CC(C)CC(=O)Nc1ccccc1N1CCOCC1", "activity change, negative = inhibition": "inactive"}
{"smiles": "O=c1[nH]c2[nH]c(=S)[nH]c(=S)c2[nH]1", "activity change, negative = inhibition": "inconclusive: 15.6% [at 7.6 µM]"}
{"smiles": "CC(=O)C1=C(C)NC(SCC(=O)c2ccc(F)cc2)=C(C#N)C1c1ccco1", "note": "(stereo not given)", "activity change, negative = inhibition": "inconclusive: 18.5%"}
{"smiles": "CCCC(c1nnnn1CS(=O)(=O)c1ccc(C)cc1)N1CCN(c2ccccc2)CC1", "note": "(stereo not given)", "activity change, negative = inhibition": "inconclusive: -28.4%"}
{"smiles": "Cc1ccc(OCC(=O)N2CCN(C(=O)CCC3CCCC3)CC2)cc1", "activity change, negative = inhibition": "inconclusive: -14.2%"}
{"smiles": "CC(=O)c1coc2ccc(OCCN3CCCCC3)cc12", "activity change, negative = inhibition": "inactive"}
{"smiles": "O=C(c1nnc(Cc2ccc(Cl)cc2)o1)N1CCc2ccccc2C1", "activity change, negative = inhibition": "inconclusive: -16.6%"}
{"smiles": "Cc1csc(SCC(=O)Nc2c(C)n(C)n(-c3ccccc3)c2=O)n1", "activity change, negative = inhibition": "inconclusive: -3.17%"}
{"smiles": "O=C(O)CCC(=O)Nc1ccc2ccccc2c1", "activity change, negative = inhibition": "inconclusive: -10.9% [at 7.6 µM]"}
{"smiles": "COc1ccc(CNc2ncncc2-c2cccc(C#N)c2)c(OC)c1", "activity change, negative = inhibition": "inconclusive: 27.5%"}
{"smiles": "Cn1c(-c2ccc(C(C)(C)C)cc2)n[nH]c1=S", "activity change, negative = inhibition": "inactive"}
{"smiles": "C[C@H](CN(C)C)C(O)(c1ccccc1)c1ccccc1", "activity change, negative = inhibition": "inactive: -9.86% [at 7.6 µM]"}
{"smiles": "CSc1ncnc2nc[nH]c12", "Potency": "active: 12.6 µM"}
{"smiles": "CN1CCN(c2ncncc2-c2cccnc2)CC1", "activity change, negative = inhibition": "inactive"}
{"smiles": "CN(C)c1ncc2nc(-c3ccc(F)cc3)c(=O)n(CCC#N)c2n1", "Potency": "active: 1.58 µM"}
{"smiles": "CN1CCN(S(=O)(=O)c2ccc(=O)[nH]c2)CC1", "activity change, negative = inhibition": "inactive"}
{"smiles": "Cc1csc(SCC(=O)N2CCN(S(=O)(=O)c3ccccc3)CC2)n1", "Potency": "inconclusive: 5.01 µM [falling, single point]"}
{"smiles": "COc1ccc(-c2noc(CSc3nc(-c4ccccc4)cc(=O)[nH]3)n2)cc1OC", "activity change, negative = inhibition": "inconclusive: 45.4%"}
{"smiles": "Cn1c(=O)c2c(nc(SCCCO)n2Cc2ccccc2Cl)n(C)c1=O", "Potency": "inconclusive: 10 µM [rising, single point]"}
{"smiles": "O=C(O)CCSCC(=O)c1ccc2c(c1)OCCO2", "activity change, negative = inhibition": "inconclusive: -24.6%"}
{"smiles": "COc1ccc(-n2c(=O)c(-c3ccc(F)cc3)nc3cnc(N4CCOCC4)nc32)cc1", "Potency": "inconclusive: 3.98 µM [rising, partial curve]"}
